Measurements from PMC4336329 (PLoS ONE, 2015).
Screen size: about 310,000 compounds; about 14,000 (4.5%) showed an effect of 50% or more. Effects have a minus sign here. The list shows a part of the results.

What follows are compounds tested against human ether-à-go-go-related gene (hERG) potassium channel (human, UniProt Q12809) (assay: primary screen, population patch clamp on CHO cells stably expressing hERG).
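Further: peak tail current of the secondary pulse compared with the same well before compound.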

human ether-à-go-go-related gene (hERG) potassium channel, sequence (Q12809 whole entry, looked up): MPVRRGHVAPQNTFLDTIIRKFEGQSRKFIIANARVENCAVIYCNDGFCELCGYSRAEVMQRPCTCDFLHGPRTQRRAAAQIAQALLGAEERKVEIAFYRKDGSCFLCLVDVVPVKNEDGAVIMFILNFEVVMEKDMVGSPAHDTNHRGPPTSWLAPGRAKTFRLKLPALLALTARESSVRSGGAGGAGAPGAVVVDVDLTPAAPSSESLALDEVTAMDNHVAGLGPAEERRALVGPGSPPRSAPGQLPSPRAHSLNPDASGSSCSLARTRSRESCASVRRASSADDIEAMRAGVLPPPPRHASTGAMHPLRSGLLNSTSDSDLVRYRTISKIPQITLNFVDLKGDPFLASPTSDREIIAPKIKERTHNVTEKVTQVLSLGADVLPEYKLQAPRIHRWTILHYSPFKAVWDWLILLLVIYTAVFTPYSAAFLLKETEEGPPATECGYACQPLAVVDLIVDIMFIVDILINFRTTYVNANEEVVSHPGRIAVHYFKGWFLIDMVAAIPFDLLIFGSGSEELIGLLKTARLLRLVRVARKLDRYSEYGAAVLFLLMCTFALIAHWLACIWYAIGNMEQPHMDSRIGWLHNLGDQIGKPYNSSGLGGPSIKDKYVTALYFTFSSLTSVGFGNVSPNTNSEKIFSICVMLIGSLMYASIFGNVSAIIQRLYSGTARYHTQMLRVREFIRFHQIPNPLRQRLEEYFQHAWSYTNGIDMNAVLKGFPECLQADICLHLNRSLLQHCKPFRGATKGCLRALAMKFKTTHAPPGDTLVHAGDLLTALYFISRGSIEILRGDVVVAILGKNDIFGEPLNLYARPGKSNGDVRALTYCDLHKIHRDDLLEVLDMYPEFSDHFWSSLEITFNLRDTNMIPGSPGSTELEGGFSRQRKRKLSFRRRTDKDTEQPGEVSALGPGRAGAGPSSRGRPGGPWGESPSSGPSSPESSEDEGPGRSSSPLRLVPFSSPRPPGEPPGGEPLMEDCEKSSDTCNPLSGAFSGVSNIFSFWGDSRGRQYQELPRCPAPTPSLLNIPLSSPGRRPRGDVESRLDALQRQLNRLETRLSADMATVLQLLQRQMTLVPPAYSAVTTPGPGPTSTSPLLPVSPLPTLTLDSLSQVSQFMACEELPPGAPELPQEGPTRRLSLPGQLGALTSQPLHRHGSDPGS

Structure (SMILES) | hERG current change (%, negative = inhibition) at 10uM [%]
COC(OC)C12c3ccccc3C(c3ccccc31)C1C(=O)N(c3cccnc3)C(=O)C12 (stereo not drawn) | 1.05
N#Cc1nc(-c2ccco2)oc1NCc1ccco1 | -9.23
COC(=O)c1ccc(S(=O)(=O)N2CCCN(Cc3cccc(Br)c3F)CC2)n1C | -12.9
Cc1cccc(C(=O)N2CC3(C)CC2CC(C)(C)C3)c1 (stereo not drawn) | 0.368
Cc1ccc(-c2nc(CN3CCCC(C(=O)N4CCOCC4)C3)c(C)o2)cc1 (stereo not drawn) | -37.5
CCc1ccc(CNC(=O)c2ccc(NC(=O)C3=CSCCO3)cc2)cc1 | -23
CC1=NN(c2nc(-c3ccc(F)cc3)cs2)C(=O)C1 | 2.35
CC1CCN(CCCNC(=O)CN2C(=O)CSc3ccc(S(=O)(=O)N4CCOCC4)cc32)CC1 | 6.31
Cc1ccc(S(=O)(=O)N2CCCC(C)C2)cc1 (stereo not drawn) | 12.9
c1ccc(CCNc2nnnn2-c2ccccc2)cc1 | 7.47
O=C(COC(=O)c1cc(S(=O)(=O)N2CCOCC2)ccc1F)c1ccc[nH]1 | -18.6
Cc1ccc(NC(=O)COc2ccccc2[N+](=O)[O-])nc1 | 15.4
CC(C)[C@@H]1CC[C@@H](C)C[C@H]1OC(=O)C[n+]1cc(-c2ccc(Cl)cc2)n2c1CCCCC2.[Cl-] | -60.1
Cc1ccc(N(CC(=O)NC2CCCCC2)S(=O)(=O)c2c(C)noc2C)cc1 | 12.4
Cc1ccc(C(=O)OCC(=O)NC(=O)c2cccn2C)cc1 | 4
CCOc1ccc(OCCSc2nc3ccccc3n2CC(=O)O)cc1 | -7.28
CNS(=O)(=O)c1cc(C(=O)OCC(=O)NC2CCCc3ccccc32)ccc1Cl (stereo not drawn) | -7.78
Cc1ccc(-c2nnn(CC(=O)N3CCN(c4ccccc4)CC3)n2)o1 | 3.45
Cc1ccc(S(=O)(=O)NC(=O)Nc2ccc(C)cn2)cc1 | 14.6
NS(=O)(=O)c1ccc(NC(=O)CN2CCN(S(=O)(=O)c3ccc(F)cc3)CC2)cc1 | 7.15
O=C(Nc1ccc(OCc2ccccc2)cc1)c1ccccc1 | 20.5
CCCCC1(C)OC(=O)C(=Cc2ccc(-c3ccc(Cl)c(C(=O)O)c3)o2)C(=O)O1 (stereo not drawn) | 2.2

Structure (SMILES) | hERG current change (%, negative = inhibition) at 10uM [%]
COc1ccc(NC(=O)Nc2cccc(C(F)(F)F)c2)cn1 | 3.61
CCCS(=O)(=O)N1CCCC(C(=O)NCc2ccco2)C1 (stereo not drawn) | 10.8
COc1ccccc1NC(=O)COC(=O)COc1cccc2c1OC(C)(C)C2 | -2.38
OCC(O)[C@@H](O[C@H]1O[C@H](CO)[C@@H](O)[C@H](O)[C@H]1O)[C@H](O)[C@@H](O)CO (stereo partly drawn) | 21.8
COc1ccc(/C=C2\SC(=O)N(CC(=O)NN3CCN(C)CC3)C2=O)cc1OC | 19
Cc1nc2ccc(NC(=O)Cc3ccccc3F)cc2s1 | 11.8
COc1ccc(NS(=O)(=O)NC(=O)c2c(C)n(C)c3ccccc23)cc1 | 17.8
Cc1cc(C)c2c(c1)/C(=c1/sc3n(c1=O)CN(c1ccccc1)CN=3)C(=O)N2 | 8.77
CC(Sc1nnc(COc2ccc(Cl)cc2)n1Cc1ccco1)C(=O)N1CCNC1=O (stereo not drawn) | -55.9
CC(C)(Cl)C1Cc2cc3ccc(=O)oc3cc2O1 (stereo not drawn) | -0.0503
C/C(=N\Nc1ccccn1)c1ccc(C(C)C)cc1 | 23.7
COc1ccc(S(=O)(=O)N2CC(C)N(C(=O)N3CCOCC3)C2)cc1 (stereo not drawn) | 16.8
O=C1c2nc3cc(-c4ccccc4)[nH]n3c(=O)c2CN1Cc1ccccc1 | 14
CN(C)c1ccc(CN(C(=O)c2ccc(Cl)c([N+](=O)[O-])c2)C2CCS(=O)(=O)C2)cc1 (stereo not drawn) | 1.05
Cc1c(NC(=O)Nc2ccc(F)cc2F)c(=O)n(-c2ccccc2)n1C | -26.6
O=C(Nc1cccc(C(F)(F)F)c1)c1c(O)c2ccccc2[nH]c1=O | 16
O=C(N[C@H]1CP(=O)(Oc2ccccc2)O[C@H](COCc2ccccc2)[C@H]1O)C(Cl)(Cl)Cl (stereo partly drawn) | -2.22
Cc1ccc(NC(=O)COC(=O)CC2SC(N3CCCC3)=NC2=O)cc1 (stereo not drawn) | 6.65
CCCCc1cc(=O)oc2c(C)c(OCC(=O)NCc3ccccn3)ccc12 | -49.3
Nc1cc2c(cc1Cl)N(Cc1ccccc1)C(=O)CO2 | 2
CC1(c2ccc3ccccc3c2)NC(=O)N(CC(=O)Nc2cccc(S(=O)(=O)N3CCOCC3)c2)C1=O (stereo not drawn) | 23.8
COCCn1ccc2c(OCC(=O)Nc3cc(OC)ccc3OC)cccc2c1=O | -14.3

Structure (SMILES) | hERG current change (%, negative = inhibition) at 10uM [%]
O=C(Nc1ncc2c(n1)-c1ccccc1CC2)C1CC1 | 11.8
CCCCn1c(N)c(N(CCOC)C(=O)c2cc3c(s2)CCC(C)C3)c(=O)[nH]c1=O (stereo not drawn) | 9.36
O=S(=O)(Nc1ccc(-c2ccc(N3CCOCC3)nn2)cc1)c1ccc(Cl)c(Cl)c1 | -14.4
COC(=O)/C=C1\S/C(=N/N=C/c2ccco2)NC1=O | 10.9
COc1ccc(-n2c(=S)[nH]c3cc(C(=O)NCCCN4CCOCC4)ccc3c2=O)cc1 | 14.9
CCOC(=O)Cn1c(-c2ccccc2)cc(SC)c(C#N)c1=O | 24.8
CCCCN(C(=O)CSc1nncn1-c1ccccc1OC)c1c(N)n(Cc2ccccc2)c(=O)[nH]c1=O | 16.7
O=C(COc1ccccc1)Nc1ccc(NC(=O)c2ccco2)cc1 | 4.15
Cc1nc2ccccc2c2oc(C(=O)N3CC(C)CC(C)C3)cc12 (stereo not drawn) | -23.2
CCOc1ccc(NC(=O)COC(=O)c2c(OC)cccc2OC)cc1 | -1.27
COc1cccc(N2CC(NC(=O)c3cccc4ccccc34)CC2=O)c1 (stereo not drawn) | -6.44
Cn1c(=O)c2c(nc(NCc3ccco3)n2CC(O)CO)n(C)c1=O (stereo not drawn) | 22.1
COc1ccccc1CNC(=O)CCc1ccccc1 | 2.65
CCCCn1c(=O)n(CC(=O)NCc2ccc(C)cc2)c(=O)c2c1nc(CO)n2CCC | -36.1
COc1cc(NC(=S)Nc2ccc(S(=O)(=O)N3CCOCC3)cc2)cc(OC)c1OC | 10.6
c1ccc(CSc2ncn[nH]2)nc1 | 14.3
CCCOc1ccc(NC(N)=O)cc1OCCC | -4.7
O=C(Cc1ccccc1)Nc1cccc(S(=O)(=O)N2CCCCCC2)c1 | -49.1
O=C(O)CCC(=O)NC1CCCCCCC1 | 12.5
O=c1c([N+](=O)[O-])cc(C(F)(F)F)cn1Cc1cccc(Cl)c1 | -10.1
CCCn1c(-c2cccs2)nc2nc3ccccc3nc21 | -10.5
Cn1c(CCNC(=O)c2cccs2)n[nH]c1=S | 23.1

Structure (SMILES) | hERG current change (%, negative = inhibition) at 10uM [%]
CC1CCC(C(=O)NNC(=O)c2cc(-c3ccco3)[nH]n2)CC1 (stereo not drawn) | -4.58
CN(C)CCOc1ccc(C(C)(C)c2ccccc2)cc1.O=C(O)C(=O)O | 23.2
COc1ccc(/C=C(/NC(=O)c2ccccc2)C(=O)NCCN2CCOCC2)cc1OC | 11.6
Cc1nn2c(=O)cc(COC(=O)c3c(F)cccc3Cl)nc2s1 | -11.1
Cc1ccnc(NC(=O)CCC(=O)N(Cc2ccco2)C(C(=O)NC(C)C)c2ccc(F)cc2)c1 (stereo not drawn) | -5.49
CCn1c(SCC(=O)c2ccccc2)nc2sc3c(c2c1=O)CCN(C)C3 | -3.77
CN1CCCN(C(=O)COc2ccccc2)CC1 | 8.8
COc1ccc([C@H]2CC(=O)C=C(c3ccc4c(c3)OCO4)C2)cc1OC | -3.35
O=C(NCc1csc2ccc(Cl)cc12)Nc1cccc2ccccc12 | 11.1
Cc1cccc(C2CC3(CC(C)(C)NC(=S)N3)Oc3cc(O)ccc32)c1 (stereo not drawn) | 9.25
O=[N+]([O-])c1cnccc1NC1CCCCC1 | 5.48
CCOc1ccc(NC(=O)c2nn(C)cc2Br)cc1 | -16.1
CCCn1c(C)nc2cc(Cl)c(N3CCN(c4nc(-c5ccc(C)cc5)cs4)CC3)cc21 | -2.29
CC(C)(C)N1C(=O)[C@H]2[C@@H](c3ccc(Br)cc3)N3C(=O)N(c4cccc(F)c4)C(=O)[C@@]3(Cc3ccccc3)[C@H]2C1=O | 2.4
Cc1ccc(OCc2ccc(C(=O)NN)o2)c([N+](=O)[O-])c1 | 1.58
CN(c1ccc(C(=O)NCCc2ccccc2)cc1)S(C)(=O)=O | 4.46
CC(C)[C@H](NC(=O)N1CCn2c1nc1ccccc12)C(=O)NCCc1ccccc1 | 6.76
Cc1ccc(-c2nnc(-c3cccnc3)o2)cc1 | -3.7
O=C(Cn1c(=S)nc2ccccn21)N1CCc2ccccc2C1 | -7.49
C=CCNC(=S)N1CCC(C(N)=O)CC1 | 20.2
Cc1csc(NC(=O)C2CC(=O)N(c3ccc4c(c3)OCCO4)C2)n1 (stereo not drawn) | -11
